# In article PMC9911399, “Two distinct binding modes provide the RNA-binding protein RbFox with extraordinary sequence specificity”:
# Changes are numbered by the printed parent chain; changes in the protein carry UniProt numbers. The list shows a part of the results.
# T1: RBFOX1 RRM (Homo sapiens, UniProt Q9NWB1 109-208)
# T1 sequence: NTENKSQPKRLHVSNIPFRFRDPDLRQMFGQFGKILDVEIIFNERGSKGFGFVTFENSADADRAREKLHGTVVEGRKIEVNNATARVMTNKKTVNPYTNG
# B1: AUUCAGC (DNA:RNA)
# RNA: GGGAGACCGGAAUUCAGAUUGUCCAUUCAGCUUAAAUCCCGUCGUAGCCACCA
# DNA 1: CAATCTGAATTCCGGTCTCCC
# DNA 2: TGGTGGCTACGACGGGATT
# B2: UUAGGUG (DNA:RNA)
# RNA: B1 RNA with A25U, U27A, C28G, A29G, G30U, C31G
# DNA 1: CAATCTGAATTCCGGTCTCCC
# DNA 2: TGGTGGCTACGACGGGATT
# B3: UAGCACC (DNA:RNA)
# RNA: B1 RNA with A25U, U26A, U27G, G30C
# DNA 1: CAATCTGAATTCCGGTCTCCC
# DNA 2: TGGTGGCTACGACGGGATT
# B4: ACAUGGC (DNA:RNA)
# RNA: B1 RNA with U26C, U27A, C28U, A29G
# DNA 1: CAATCTGAATTCCGGTCTCCC
# DNA 2: TGGTGGCTACGACGGGATT
# B5: GUCUUGA (DNA:RNA)
# RNA: B1 RNA with A25G, U27C, C28U, A29U, C31A
# DNA 1: CAATCTGAATTCCGGTCTCCC
# DNA 2: TGGTGGCTACGACGGGATT
# B6: UGCAUGG (DNA:RNA)
# RNA: B1 RNA with A25U, U26G, U27C, C28A, A29U, C31G
# DNA 1: CAATCTGAATTCCGGTCTCCC
# DNA 2: TGGTGGCTACGACGGGATT
# B7: UCCACGG (DNA:RNA)
# RNA: B1 RNA with A25U, U26C, U27C, C28A, A29C, C31G
# DNA 1: CAATCTGAATTCCGGTCTCCC
# DNA 2: TGGTGGCTACGACGGGATT
# B8: CUAAUGG (DNA:RNA)
# RNA: B1 RNA with A25C, U27A, C28A, A29U, C31G
# DNA 1: CAATCTGAATTCCGGTCTCCC
# DNA 2: TGGTGGCTACGACGGGATT
# B9: GACGGCG (DNA:RNA)
# RNA: GGGAGACCGGAAUUCAGAUUGUCCGACGGCGUUAAAUCCCGUCGUAGCCACCA
# DNA 1: CAATCTGAATTCCGGTCTCCC
# DNA 2: TGGTGGCTACGACGGGATT
# Target: T1, RBFOX1 RRM
# Assay: EMSA; HiTS-Eq, 1 nM pool, 10 min; buffer printed only for the single-RNA assays: 10 mM Tris pH 7.5, 150 mM NaCl, 3.4 mM EDTA, 0.001% NP-40, 30 C
# Settings: tags: His6 N-terminal (pET28a); label: 5' 32P
# How it was run: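 Purified wild-type or mutant RbFox RRM at increasing concentrations was equilibrated with 1 nM of 5′-radiolabelled RNA carrying 7 randomized nucleotides for 10 min in 50 µL. Unbound RNA was separated by 8% native PAGE and sequenced. Relative association constants came from read-count changes of each RNA species compared with the control reaction, normalised to the cognate motif.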
row,Binder,binding signal
1,B1,0.0054 KA relative to UGCAUGU
2,B2,0.0203 KA relative to UGCAUGU
3,B3,0.0118 KA relative to UGCAUGU
4,B4,0.00822 KA relative to UGCAUGU
5,B5,0.0212 KA relative to UGCAUGU
6,B6,0.965 KA relative to UGCAUGU
7,B7,0.00671 KA relative to UGCAUGU
8,B8,0.00979 KA relative to UGCAUGU
9,B9,0.0274 KA relative to UGCAUGU
